# The supplement of paper PMC8728848
# The other results are listed elsewhere or left out.
# Assays:
# Assay in all cases: glycan array binding signal (z-score within array); higher = stronger binding
# Details in all cases: glycan notation: IUPAC condensed, linker removed; mutation: Y104F
# [1] = target: Man(a1-2)Man(a1-2)Man(a1-3)[Man(a1-2)Man(a1-3)[Man(a1-2)Man(a1-6)]Man(a1-6)]Man(b1-4)GlcNAc(b1-4)GlcNAc
# Outline: (§1)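 The binding signal is a Z-score computed within each array. Data were drawn from 3228 arrays in the Consortium for Functional Glycomics database, restricted to those with a known protein sequence. Scores were averaged over arrays of the same protein sequence at different concentrations or buffers, and over linkers, and negative values can be taken as non-binding.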
# [2] = target: Man(a1-2)Man(a1-2)Man(a1-3)[Man(a1-2)Man(a1-6)[Man(a1-3)]Man(a1-6)]Man(b1-4)GlcNAc(b1-4)GlcNAc
# Outline: as §1
# [3] = target: Man(a1-2)Man(a1-2)Man(a1-3)[Man(a1-3)[Man(a1-6)]Man(a1-6)]Man(b1-4)GlcNAc(b1-4)GlcNAc
# Outline: as §1
# [4] = target: Man(a1-2)Man(a1-3)[Man(a1-2)Man(a1-6)[Man(a1-3)]Man(a1-6)]Man(b1-4)GlcNAc(b1-4)GlcNAc
# Outline: as §1
# [5] = target: Man(a1-2)Man(a1-3)[Man(a1-3)[Man(a1-6)]Man(a1-6)]Man(b1-4)GlcNAc(b1-4)GlcNAc
# Outline: as §1
# [6] = target: Man(a1-3)Man
# Outline: as §1
# [7] = target: Man(a1-3)Man(a1-6)[Man(a1-3)]Man(b1-4)GlcNAc(b1-4)GlcNAc
# Outline: as §1
# [8] = target: Man(a1-3)Man(b1-4)GlcNAc
# Outline: as §1
# [9] = target: Man(a1-3)[Man(a1-6)]Man
# Outline: as §1
# [10] = target: Man(a1-3)[Man(a1-6)]Man(a1-6)Man(b1-4)GlcNAc(b1-4)GlcNAc
# Outline: as §1
# [11] = target: Man(a1-3)[Man(a1-6)]Man(a1-6)[Man(a1-3)]Man
# Outline: as §1
# [12] = target: Man(a1-3)[Man(a1-6)]Man(a1-6)[Man(a1-3)]Man(b1-4)GlcNAc(b1-4)GlcNAc
# Outline: as §1
# [13] = target: Man(a1-3)[Man(a1-6)]Man(b1-4)GlcNAc(b1-4)GlcNAc
# Outline: as §1
# [14] = target: Man(a1-3)[Man(a1-6)]Man(b1-4)GlcNAc(b1-4)[Fuc(a1-6)]GlcNAc
# Outline: as §1
# [15] = target: Man(a1-6)Man
# Outline: as §1
# [16] = target: Man(a1-6)Man(b1-4)GlcNAc(b1-4)GlcNAc
# Outline: as §1
# [17] = target: Man(b1-4)GlcNAc
# Outline: as §1
# [18] = target: Neu5Ac(a2-3)Gal(b1-4)GlcNAc(b1-2)Man(a1-3)[Neu5Ac(a2-3)Gal(b1-4)GlcNAc(b1-2)Man(a1-6)]Man(b1-4)GlcNAc(b1-4)[Fuc(a1-6)]GlcNAc
# Outline: as §1
# [19] = target: Neu5Ac(a2-6)Gal(b1-4)GlcNAc(b1-2)Man(a1-3)[Neu5Ac(a2-6)Gal(b1-4)GlcNAc(b1-2)Man(a1-6)]Man(b1-4)GlcNAc(b1-4)GlcNAc
# Outline: as §1
# [20] = target: Xyl(b1-2)[Man(a1-3)][Man(a1-6)]Man(b1-4)GlcNAc(b1-4)GlcNAc
# Outline: as §1
# [21] = target: Xyl(b1-2)[Man(a1-3)][Man(a1-6)]Man(b1-4)GlcNAc(b1-4)[Fuc(a1-3)]GlcNAc
# Outline: as §1
binder,measurement,setting,value
"ZG16p (Homo sapiens), O60844 (protein) ARSSSYSGEYGGGGGKRFSHSGNQLDGPITALRVRVNTYYIVGLQVRYGKVWSDYVGGRNGDLEEIFLHPGESVIQVSGKYKWFLKKLLFVTDKGRYLSFGKDSGTSFNAVPLHPNTVLRFISGRSGSLIDAIGLHWDVYPSSCSRC",glycan array binding signal (z-score),[1],-0.436
same,glycan array binding signal (z-score),[2],-0.292
same,glycan array binding signal (z-score),[3],-0.301
same,glycan array binding signal (z-score),[4],-0.485
same,glycan array binding signal (z-score),[5],-0.34
same,glycan array binding signal (z-score),[6],0.253
same,glycan array binding signal (z-score),[7],-0.211
same,glycan array binding signal (z-score),[8],0.015
same,glycan array binding signal (z-score),[9],0.473
same,glycan array binding signal (z-score),[10],-0.293
same,glycan array binding signal (z-score),[11],0.022
same,glycan array binding signal (z-score),[12],-0.351
same,glycan array binding signal (z-score),[13],-0.312
same,glycan array binding signal (z-score),[14],-0.285
same,glycan array binding signal (z-score),[15],0.091
same,glycan array binding signal (z-score),[16],-0.099
same,glycan array binding signal (z-score),[17],-0.37
same,glycan array binding signal (z-score),[18],-0.46
same,glycan array binding signal (z-score),[19],-0.485
same,glycan array binding signal (z-score),[20],-0.331
same,glycan array binding signal (z-score),[21],-0.355
